According to the supplement of paper PMC3334620:
The full ranking holds about 33,000 sequences; the median of “E-score (-0.5 to 0.5)” is about -0.012, and the highest 2% start at about 0.27. The list shows a part of the results.

Biological target: T1, Vhr1 (UniProt P40522)
T1 sequence: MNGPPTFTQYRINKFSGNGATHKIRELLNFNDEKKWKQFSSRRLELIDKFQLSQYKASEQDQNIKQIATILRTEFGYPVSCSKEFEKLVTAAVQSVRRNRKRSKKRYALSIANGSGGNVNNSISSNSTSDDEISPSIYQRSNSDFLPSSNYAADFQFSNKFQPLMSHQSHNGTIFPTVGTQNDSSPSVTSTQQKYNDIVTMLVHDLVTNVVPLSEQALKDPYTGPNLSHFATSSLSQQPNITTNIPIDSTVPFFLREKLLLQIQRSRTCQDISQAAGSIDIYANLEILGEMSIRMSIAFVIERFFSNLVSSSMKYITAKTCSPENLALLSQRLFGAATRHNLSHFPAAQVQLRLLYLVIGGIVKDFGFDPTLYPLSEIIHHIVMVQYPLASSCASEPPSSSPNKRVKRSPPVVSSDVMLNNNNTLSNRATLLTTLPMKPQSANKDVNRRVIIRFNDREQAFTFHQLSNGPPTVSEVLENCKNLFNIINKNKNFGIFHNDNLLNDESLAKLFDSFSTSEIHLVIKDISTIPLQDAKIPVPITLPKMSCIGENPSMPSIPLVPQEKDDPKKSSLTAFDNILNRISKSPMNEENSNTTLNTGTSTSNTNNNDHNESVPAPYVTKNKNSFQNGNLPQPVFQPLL
Assay: PBM E-score (8-mer binding enrichment) (E-score (-0.5 to 0.5)); higher = stronger / more preferred TF binding; most listed sequences are background and not binding sites
Conditions: protein concentration: 200 nM; construct: GST-full length
Outline: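 Universal all-10-mer Agilent arrays, fresh or stripped once, were converted to double-stranded form by primer extension. GST-tagged yeast transcription factors from PURExpress in vitro transcription/translation, full-length or DNA-binding domain only, were applied at about 100-200 nM and detected with fluorescent anti-GST. After masliner normalisation, the Universal PBM Analysis Suite scored each ungapped eight-base word together with its reverse complement by E-score.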

Compared with ATTCGTAA, GATACCGC is higher in “PBM E-score” value: -0.082 for the first, 0.142 for the second.

Going from ATCATGTA to CAGTTAGA, the “PBM E-score” value falls from 0.206 to -0.187.

Compared with CTACAAGC, GGTAGCGA is higher in “PBM E-score” value: -0.0967 for the first, -0.0248 for the second.

Going from CTCGTTCC to ACAAAATG, the “PBM E-score” value falls from 0.0375 to -0.0165.

Going from ATACGCTG to ATTCTATA, the “PBM E-score” value falls from 0.103 to 0.0275.

Going from TCCTATCA to CATGGGCG, the “PBM E-score” value rises from -0.00908 to 0.204.

Compared with CTAAGGTC, GGACGAGA is lower in “PBM E-score” value: 0.0041 for the first, -0.0215 for the second.

Going from AGATCCTG to CAGTACCA, the “PBM E-score” value rises from -0.157 to 0.145.

Compared with GTTACGCA, CCGCATCA is higher in “PBM E-score” value: -0.0223 for the first, 0.112 for the second.

First: CAGTGGAA
Second: CCTTAACC
The “PBM E-score” value of the first is higher: -0.0748 for the first, -0.0868 for the second.

Going from CGGATACA to AATTGACG, the “PBM E-score” value falls from 0.231 to -0.278.

First: GATTAGGC
Second: ACGATTAC
The “PBM E-score” value of the first is lower: -0.0899 for the first, 0.161 for the second.

Going from CATGGCCA to CCAGAGCA, the “PBM E-score” value rises from -0.194 to 0.0496.

Compared with ATGATCGC, CCCCTCTC is lower in “PBM E-score” value: 0.0413 for the first, -0.256 for the second.

Compared with AGCGGGAA, ATGACACA is higher in “PBM E-score” value: 0.00142 for the first, 0.268 for the second.

Going from CTTCCTCA to AATTGATA, the “PBM E-score” value rises from -0.0353 to 0.13.

First: CAATCTCA
Second: CGGCCGCA
The “PBM E-score” value of the first is lower: 0.028 for the first, 0.188 for the second.

First: AAACCAGT
Second: AACTCCAT
The “PBM E-score” value of the first is higher: 0.0233 for the first, -0.122 for the second.

First: GCGGTTCC
Second: AAACGCGT
The “PBM E-score” value of the first is higher: 0.0087 for the first, -0.034 for the second.

Compared with GCAGCCAC, ATACTCCA is higher in “PBM E-score” value: 0.151 for the first, 0.157 for the second.

First: ACCCTGTG
Second: CCCGGTTA
The “PBM E-score” value of the first is higher: 0.0661 for the first, -0.24 for the second.

Compared with CGAACTCA, GCACGACA is lower in “PBM E-score” value: 0.0509 for the first, -0.0845 for the second.

First: TCGAGAGA
Second: ACGGAATC
The “PBM E-score” value of the first is lower: -0.169 for the first, 0.0679 for the second.

Compared with AAAAGTCG, GTGATTAA is higher in “PBM E-score” value: -0.0881 for the first, 0.248 for the second.

Compared with GATTCTAC, CTACCTAG is lower in “PBM E-score” value: 0.16 for the first, -0.186 for the second.

First: AAGGTAAT
Second: CGAGGGAC
The “PBM E-score” value of the first is higher: 0.146 for the first, -0.207 for the second.

Going from AACTGGCG to AATATTTC, the “PBM E-score” value falls from 0.132 to -0.0551.

Compared with AGTTTGCG, TAGGAGCA is lower in “PBM E-score” value: 0.152 for the first, -0.0685 for the second.

Going from CTGCCCTA to AAGAATGG, the “PBM E-score” value falls from -0.101 to -0.12.

Going from CGATCGTA to GATGTCGA, the “PBM E-score” value falls from 0.0235 to 0.00412.

Going from CTAAGCCC to AGATTAGC, the “PBM E-score” value rises from -0.244 to -0.166.

Compared with GTGCAGAA, AGAGACAG is higher in “PBM E-score” value: -0.249 for the first, -0.0107 for the second.

Going from GAGTCCTA to ATAGGGTA, the “PBM E-score” value falls from 0.185 to 0.15.

First: AACTCCAC
Second: AAGGTCAA
The “PBM E-score” value of the first is higher: -0.033 for the first, -0.0699 for the second.

Going from GCAGAGCA to CTTGCGAC, the “PBM E-score” value falls from -0.0587 to -0.144.

Going from ATTTGGAA to TAATTCCA, the “PBM E-score” value rises from -0.12 to 0.00948.

Going from CTAGGATC to GACCAGGC, the “PBM E-score” value rises from -0.148 to -0.0346.

First: ACGCTTAT
Second: CGGCGATC
The “PBM E-score” value of the first is lower: -0.167 for the first, 0.161 for the second.

Compared with CCGGCAGA, GCGCCGGA is higher in “PBM E-score” value: -0.238 for the first, -0.0486 for the second.

Going from GCTTAACA to CGGCCCCA, the “PBM E-score” value falls from -0.117 to -0.256.

Compared with ATCGAGCC, TCGGTGCA is higher in “PBM E-score” value: -0.0957 for the first, 0.0154 for the second.

Going from CTCACATA to TAGTGGAA, the “PBM E-score” value falls from 0.186 to -0.242.

First: TGAAGGCA
Second: CATGCATA
The “PBM E-score” value of the first is lower: -0.196 for the first, 0.0152 for the second.

Going from CTTTAGTA to AGCTGTGA, the “PBM E-score” value rises from -0.1 to 0.0331.

Going from AAGTACTC to CAATAGTA, the “PBM E-score” value rises from 0.0478 to 0.0779.

Going from AAATCCAG to GTTCGTAA, the “PBM E-score” value rises from -0.0628 to -0.00434.

Going from GTTGTCCA to AGAATGAT, the “PBM E-score” value rises from 0.0188 to 0.215.

First: AAAGCATT
Second: CCATGCAA
The “PBM E-score” value of the first is lower: -0.158 for the first, 0.033 for the second.

Compared with GCGACTAC, ACAACTCC is lower in “PBM E-score” value: 0.341 for the first, 0.0431 for the second.

First: ACTGGCTG
Second: GGGGGACC
The “PBM E-score” value of the first is higher: 0.0954 for the first, -0.0584 for the second.

Compared with CGATCTAA, AACCCAGT is higher in “PBM E-score” value: 0.0349 for the first, 0.116 for the second.

First: AAGGTGTA
Second: CACTGCCA
The “PBM E-score” value of the first is lower: -0.119 for the first, 0.124 for the second.

Going from ATCCGGGG to AATTAACA, the “PBM E-score” value falls from 0.223 to 0.0375.

First: TGGCGACA
Second: TAAAACTA
The “PBM E-score” value of the first is higher: 0.1 for the first, -0.102 for the second.

First: AGAAGTTC
Second: CTATACGC
The “PBM E-score” value of the first is lower: -0.247 for the first, 0.152 for the second.

Going from CTGCTTCC to ATAATGGC, the “PBM E-score” value rises from -0.275 to 0.0598.

First: GTCGAAAA
Second: AATGCTCC
The “PBM E-score” value of the first is higher: -0.187 for the first, -0.208 for the second.

First: AGCCTGGG
Second: CAACCTAG
The “PBM E-score” value of the first is higher: 0.0474 for the first, 0.0465 for the second.

First: CAGTCCCA
Second: AAGGGAAG
The “PBM E-score” value of the first is higher: 0.0293 for the first, 0.0285 for the second.

Going from CTTGGTCC to CACAACAG, the “PBM E-score” value rises from -0.0873 to 0.0574.

First: AGAATACG
Second: GAACACAC
The “PBM E-score” value of the first is lower: -0.12 for the first, 0.191 for the second.

Compared with CAGCAGGA, AACCGGGA is lower in “PBM E-score” value: 0.161 for the first, 0.00811 for the second.

Compared with AAAGGTTC, TCAGTGCA is higher in “PBM E-score” value: -0.229 for the first, 0.0754 for the second.

Compared with CAATGGTC, CAAATCCG is lower in “PBM E-score” value: 0.115 for the first, -0.0618 for the second.

Compared with ACATAGCG, CTTTGCAC is lower in “PBM E-score” value: -0.0588 for the first, -0.125 for the second.

Compared with CAGGAGAC, GCATCCTA is lower in “PBM E-score” value: 0.129 for the first, -0.0643 for the second.

Going from ACAGCCTA to ATCAACTG, the “PBM E-score” value rises from 0.0389 to 0.118.

First: AAGAGGTC
Second: GCCGTTAA
The “PBM E-score” value of the first is higher: -0.0935 for the first, -0.105 for the second.

Going from CCCGTCGG to GTTCACTA, the “PBM E-score” value falls from 0.065 to -0.133.

First: CAATTGCG
Second: AATGTTCC
The “PBM E-score” value of the first is higher: -0.0118 for the first, -0.0334 for the second.

Going from AGGTCATC to GCCCCAAC, the “PBM E-score” value rises from -0.103 to 0.0402.

Going from GAAGAGCC to AGTCCGTA, the “PBM E-score” value rises from -0.0925 to -0.0543.

Compared with CCCCTATC, ACCGCACG is lower in “PBM E-score” value: -0.087 for the first, -0.135 for the second.

Compared with ACTCGCAC, ATATAGTG is lower in “PBM E-score” value: 0.247 for the first, 0.221 for the second.

First: CCAGTTAC
Second: ATCCCAGG
The “PBM E-score” value of the first is lower: -0.213 for the first, -0.0351 for the second.

Compared with CCTAAAAA, TGGCAAAA is higher in “PBM E-score” value: -0.196 for the first, 0.0202 for the second.

Going from ACAATTAT to ATTTGTGG, the “PBM E-score” value rises from 0.00539 to 0.118.

Compared with ACCAGACT, ACGAAGTG is higher in “PBM E-score” value: -0.0222 for the first, 0.0484 for the second.

First: CTTAAATC
Second: TCAAGTAA
The “PBM E-score” value of the first is higher: -0.0588 for the first, -0.0786 for the second.

Going from GCGTTCAA to ATAAGCCG, the “PBM E-score” value rises from -0.15 to -0.0884.

Compared with CTCGTTCA, GTTGCAGA is lower in “PBM E-score” value: 0.00535 for the first, -0.212 for the second.

Going from TTCTACAA to TCCCTTAA, the “PBM E-score” value falls from -0.0392 to -0.201.

Compared with AAGATTAT, CCGGGTCC is lower in “PBM E-score” value: 0.0577 for the first, -0.125 for the second.

First: TAATACAA
Second: GATTATTA
The “PBM E-score” value of the first is higher: 0.209 for the first, 0.0488 for the second.

Going from AATTTAGA to AAATCCCA, the “PBM E-score” value falls from -0.16 to -0.222.

Compared with CCAACCGC, GGTGGCTA is higher in “PBM E-score” value: 0.109 for the first, 0.148 for the second.
